In PubChem BioAssay:
This list was built around the results that the source calls inconclusive (neither active nor inactive); the mix of calls is not that of the screen. Potencies of inconclusive entries are doubtful fits and often do not repeat. Activity calls are given as the source filed them. Unless noted, the limit is not given here; nearly all actives have AC50 up to about 26 µM.

Assay: SU-DIPG-VI glioma cell viability, MIPE4.0 library, CellTiter-Glo luminescence, qHTS (AID 1347066; cut-off not given, nearly all actives have AC50 up to about 30 µM)
Details: CellTiter-Glo ATP luminescence
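Also: cells exposed to compound for 48 hours before readout.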

Compound	AC50	outcome
O=C(c1ccc(/C=C/c2n[nH]c3ccccc23)cc1)N1CCNCC1	inconclusive: 23.5 µM [cytotoxic]	
CC(C)C[C@H](NC(=O)c1cc2ccccc2s1)C(=O)N1CCN(C(=O)[C@H](CO)NS(=O)(=O)c2ccc(Cl)cc2Cl)CC1	active: 23.5 µM	
CN(C)CCCNC(=O)c1ccc(-c2cc(O)c3ncccc3c2)cc1	inconclusive: 23.5 µM [cytotoxic]	
CCOC(=O)[C@H]1O[C@@H]1C(=O)N[C@@H](CC(C)C)C(=O)NCCC(C)C	inconclusive: 37.2 µM [cytotoxic]	
COc1ccc(C(=O)CC2(O)C(=O)Nc3c(Cl)ccc(Cl)c32)cc1 (stereo unspecified)		inactive
CNCCCC12CCC(c3ccccc31)c1ccccc12		inactive
C[C@@H]1C[C@H]2[C@@H]3CCC4=CC(=O)C=C[C@]4(C)[C@@]3(Cl)[C@@H](O)C[C@]2(C)[C@@]1(OC(=O)c1ccco1)C(=O)CCl	active: 20.9 µM	
O=C1CN2Cc3c(ccc(Cl)c3Cl)N=C2N1	inconclusive: 23.5 µM [cytotoxic]	
CN(C)c1ccc(C(=C2C=CC(=[N+](C)C)C=C2)c2ccc(N(C)C)cc2)cc1	active: 0.372 µM	
CCOC(=O)C1=C(O)C(=O)N(Cc2ccccc2)C1		inactive
NCC1CCC(C(=O)O)CC1 (stereo unspecified)		inactive
CC(C)C[C@H](NC(=O)CNC(=O)c1cc(Cl)ccc1Cl)B(O)O	inconclusive: 0.209 µM [cytotoxic]	
COc1cc2nccc(Oc3ccc(NC(=O)NC4CC4)c(Cl)c3)c2cc1C(N)=O	inconclusive: 33.2 µM [cytotoxic]	
OCCN(CCO)c1nc(N2CCCCC2)c2nc(N(CCO)CCO)nc(N3CCCCC3)c2n1	inconclusive: 26.4 µM [cytotoxic]	
CC(=O)OCC(=O)[C@@]1(O)CC[C@H]2[C@@H]3CCC4=CC(=O)CC[C@]4(C)[C@H]3C(=O)C[C@@]21C		inactive
Cn1cnc2c(F)c(Nc3ccc(Br)cc3F)c(C(=O)NOCCO)cc21		inactive
CC(C)C[C@@H](C=O)NC(=O)[C@H](CC(C)C)NC(=O)[C@H](CC(C)C)NC(=O)OCc1ccccc1	active: 0.296 µM	
NS(=O)(=O)c1cc2c(cc1Cl)NC(C(Cl)Cl)NS2(=O)=O (stereo unspecified)		inactive
COc1ccc(OC)c(-c2nnc3ccc(-c4ccc(OC)c(O[C@@H]5CCOC5)c4)nn23)c1	active: 11.8 µM	
CC(C(=O)O)c1ccc(-c2ccccc2)c(F)c1 (stereo unspecified)		inactive

Assay: JHH-DIPG-1 glioma cell viability, MIPE5.0 library, CellTiter-Glo luminescence, qHTS (AID 1347067)
Details: JHH-DIPG-1 glioma viability, CellTiter-Glo ATP luminescence

Compound	outcome	AC50
CCCCCCCCCCCCCCCCCCCCCCO	inactive	
O=C(c1ccc(/C=C/c2n[nH]c3ccccc23)cc1)N1CCNCC1		inconclusive: 0.833 µM [cytotoxic]
CC(C)C[C@H](NC(=O)c1cc2ccccc2s1)C(=O)N1CCN(C(=O)[C@H](CO)NS(=O)(=O)c2ccc(Cl)cc2Cl)CC1		inconclusive: 37.2 µM [cytotoxic]
CCOC(=O)[C@H]1O[C@@H]1C(=O)N[C@@H](CC(C)C)C(=O)NCCC(C)C	inactive	
CN(C)CCc1c[nH]c2ccc(CS(=O)(=O)N3CCCC3)cc12	inactive	
CN(C)CC(C)(C)CNc1nn2c(-c3ccccc3)nnc2cc1C1CCC1	inactive	
CC(=O)O[C@H]1C(=O)[C@@]2(C)C([C@H](OC(=O)c3ccccc3)[C@]3(O)C[C@H](OC(=O)[C@H](O)[C@@H](NC(=O)c4ccccc4)c4ccccc4)C(C)=C1C3(C)C)[C@]1(OC(C)=O)CO[C@@H]1C[C@@H]2O (stereo partly specified)		inconclusive: 0.00148 µM [cytotoxic]
N=C(N)c1ccc(OCCCCCOc2ccc(C(=N)N)cc2)cc1		inconclusive: 29.5 µM [cytotoxic]
COc1ccc(C(=O)CC2(O)C(=O)Nc3c(Cl)ccc(Cl)c32)cc1 (stereo unspecified)		active: 2.63 µM
CNCCCC12CCC(c3ccccc31)c1ccccc12		inconclusive: 2.95 µM [cytotoxic]
C[C@@H]1C[C@H]2[C@@H]3CCC4=CC(=O)C=C[C@]4(C)[C@@]3(Cl)[C@@H](O)C[C@]2(C)[C@@]1(OC(=O)c1ccco1)C(=O)CCl		inconclusive: 37.2 µM [cytotoxic]
O=C1CN2Cc3c(ccc(Cl)c3Cl)N=C2N1	inactive	
CCOC(=O)C1=C(O)C(=O)N(Cc2ccccc2)C1	inactive	
CCN(CC)CCOc1ccc(Nc2ncc3cc(-c4c(Cl)cccc4Cl)c(=O)n(C)c3n2)cc1		active: 4.68 µM
CC(C)C[C@H](NC(=O)CNC(=O)c1cc(Cl)ccc1Cl)B(O)O		active: 0.263 µM
CN1CCN(C2=Nc3cc(Cl)ccc3Nc3ccccc32)CC1		inconclusive: 37.2 µM [cytotoxic]
COc1cc2nccc(Oc3ccc(NC(=O)NC4CC4)c(Cl)c3)c2cc1C(N)=O		inconclusive: 2.35 µM [cytotoxic]
OCCN(CCO)c1nc(N2CCCCC2)c2nc(N(CCO)CCO)nc(N3CCCCC3)c2n1		inconclusive: 20.9 µM [cytotoxic]

Compound	outcome	AC50
CC1=C(C)C(=O)C(C(CCCCCC(=O)O)c2ccccc2)=C(C)C1=O (stereo unspecified)	inactive	
Cn1c(=O)c(Oc2ccc(F)cc2F)cc2cnc(NC3CCOCC3)nc21	inactive	
Cc1cnc(C(=O)NCCc2ccc(S(=O)(=O)NC(=O)NC3CCCCC3)cc2)cn1	inactive	
O=C1CCCC(=O)C1C(=O)c1ccc(C(F)(F)F)cc1[N+](=O)[O-]	inactive	
CCC[C@@H](C=O)NC(=O)[C@H](CC(C)C)NC(=O)[C@H](CC(C)C)NC(=O)OCc1ccccc1		active: 0.525 µM
CC(=O)OCC(=O)[C@@]1(O)CC[C@H]2[C@@H]3CCC4=CC(=O)CC[C@]4(C)[C@H]3C(=O)C[C@@]21C	inactive	
CC(C)C[C@@H](C=O)NC(=O)[C@H](CC(C)C)NC(=O)[C@H](CC(C)C)NC(=O)OCc1ccccc1		active: 0.468 µM
Cc1c(-c2ccc(O)cc2)n(Cc2ccc(OCCN3CCCCCC3)cc2)c2ccc(O)cc12		inconclusive: 37.2 µM [cytotoxic]
Cc1c(Cn2c(C)nc3c(C(=O)O)cc(N4CCOCC4)cc32)cccc1C(F)(F)F	inactive	
CC(C)(C#N)c1cc(Cn2cncn2)cc(C(C)(C)C#N)c1	inactive	
COc1cc2ncnc(-n3nc(-c4ccccn4)nc3N)c2cc1OC		inconclusive: 13.2 µM [cytotoxic]
NS(=O)(=O)c1cc2c(cc1Cl)NC(C(Cl)Cl)NS2(=O)=O (stereo unspecified)	inactive	
NC(=O)c1ccc2[nH]ccc2c1		inconclusive: 0.661 µM [cytotoxic]
COc1ccc(OC)c(-c2nnc3ccc(-c4ccc(OC)c(O[C@@H]5CCOC5)c4)nn23)c1		inconclusive: 4.17 µM [cytotoxic]
CC(C(=O)O)c1ccc(-c2ccccc2)c(F)c1 (stereo unspecified)	inactive	
Cc1ccc(NC(=O)c2ccc(CN3CCN(C)CC3)cc2)cc1Nc1nccc(-c2cccnc2)n1		inconclusive: 0.00148 µM
CCCn1c(=O)c2[nH]c(-c3cnn(Cc4cccc(C(F)(F)F)c4)c3)nc2n(CC)c1=O		inconclusive: 9.34 µM [cytotoxic]
CCCc1cc(C(N)=S)ccn1	inactive	
